T1: human SP-D (R et D Systems, reference 1920-SP-050) (human, UniProt P35247 21-375)
T1 construct: also called Surfactant Protein D; SP-D ligand
T1 sequence (looked up): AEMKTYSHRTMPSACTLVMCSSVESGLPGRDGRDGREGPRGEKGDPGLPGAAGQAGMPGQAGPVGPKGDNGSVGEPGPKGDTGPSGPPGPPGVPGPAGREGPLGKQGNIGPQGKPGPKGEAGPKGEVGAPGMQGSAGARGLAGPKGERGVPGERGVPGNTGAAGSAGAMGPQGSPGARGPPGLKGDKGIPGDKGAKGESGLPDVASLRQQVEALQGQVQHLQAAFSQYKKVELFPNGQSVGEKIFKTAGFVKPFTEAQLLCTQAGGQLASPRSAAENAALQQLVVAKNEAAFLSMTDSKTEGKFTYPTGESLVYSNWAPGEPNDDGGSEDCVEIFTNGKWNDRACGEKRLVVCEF

B1: recombinant hSIRPa (Sino Biologicals, reference 11612-H08H) (receptor)
chain: not shown
notes: also called SIRPa-His; human SIRPa-His; not shown: His tag (histidine tail)
B2: modified anti-SIRPa HEFLB antibody with ECD of PD1 on the light chain (antibody, human IgG4 S228P, kappa)
heavy: EVQLVQSGAEVKKPGESLRISCKASGYSFTSYWVHWVRQMPGKGLEWMGNIDPSDSDTHYSPSFQGHVTLSVDKSISTAYLQLSSLKASDTAMYYCVRGGTGTLAYFAYWGQGTLVTVSSASTKGPSVFPLAPCSRSTSESTAALGCLVKDYFPEPVTVSWNSGALTSGVHTFPAVLQSSGLYSLSSVVTVPSSSLGTKTYTCNVDHKPSNTKVDKRV[sequence of human IgG4 Fc with S228P L445P (EU numbers) omitted]
light: DVVMTQSPLSLPVTLGQPASISCRSSQSLVHSYGNTYLYWFQQRPGQSPRLLIYRVSNRFSGVPDRFSGSGSGTDFTLKISRVEAEDVGVYYCFQGTHVPYTFGGGTKVEIKRTVAAPSVFIFPPSDEQLKSGTASVVCLLNNFYPREAKVQWKVDNALQSGNSQESVTEQDSKDSTYSLSSTLTLSKADYEKHKVYACEVTHQGLSSPVTKSFNRGECGGGGSGGGGSGGGGSPGWF[sequence of about 150 residues omitted]
notes: HEFLB with the ECD fused at the C-terminus of the light chain; also called VH+VLprot (PD1); HEF + LB-PD1

Experiment [1] concerns the target T1, human SP-D (R et D Systems, reference …). The experiment can be described thus: BLI (Blitz); SIRPa-His on Ni-NTA biosensor, SP-D at 100 ug/ml, no antibody [B, table B].
Experiment [2] has the same target. The experiment can be described thus: BLI (Blitz); SIRPa-His on Ni-NTA biosensor pre-incubated with mouse 18D5 at 20 ug/ml, then SP-D at 100 ug/ml [B, table B]. The protocol:
FIG. 6. […] SIRPa-His recombinant protein was immobilized onto a NINTA biosensor at 10 μg/ml and the anti-SIRPa antibody was added at 20 μg/ml (saturating concentration).
Analysis of data was made with the Blitz pro 1.2 software, which calculated association constant (ka) and dissociation constant (kd) and determined the affinity constant KD […].

Experiment [3] deals with B1. The experiment in a line: ELISA on immobilized SIRPa-His, peroxidase anti-human IgG, DO 450nm [panel PD1]. The procedure:
Method: For ELISA assay, recombinant hSIRPa (Sino Biologicals, Beijing, China; reference 11612-H08H) was immobilized on plastic at 0.5 μg/ml in carbonate buffer (pH9.2) and different modified anti-SIRPa antibodies were added to measure binding to SIRPa.
A general note: An ELISA detects its analyte on a solid surface through an enzyme-linked reagent.

As a reminder, the Kd is a measure of binding affinity in units of concentration. A lower Kd goes with tighter binding. As a reminder, the koff is the rate constant with which the complex falls apart. Read a low koff as a long-lived complex. In general, kon refers to the second-order rate constant of association. High values mean fast association, low ones slow association. Consider B1, for which, in experiment [1], binding was put at a Kd of 4370 nM, the koff was 0.0108 s⁻¹ and the kon turned out to be 2460 M⁻¹ s⁻¹. Also, in experiment [2], the equilibrium dissociation constant (Kd) was 735 nM, the off-rate constant (koff) was determined as 0.00241 s⁻¹ and the kon amounted to 3270 M⁻¹ s⁻¹.
With B2, the binding result in experiment [3] is recorded as “binds”.

These data come from patent publication US20210179728A1 (OSE IMMUNOTHERAPEUTICS, published 2021).
